Laboratory results from PubChem BioAssay AID485344 (National Center for Advancing Translational Sciences (NCATS), 2010).
About 6,900 (2%) of roughly 340,000 compounds were called active. No stated cut-off is given here; in the data, active means inhibition above about 30%; inactive means below that, where a call was filed. This is a selection; strong and weak results do not stand in their true shares. Entries without a call were filed so in the source.

The compounds below were run against D(2) dopamine receptor (Homo sapiens) (UniProt P14416) (assay: HTS Assay for Allosteric Antagonists of the Human D2 Dopamine Receptor: Primary Screen for Antagonists). Conditions: HEK293 TREx D2 cells, calcium flux, dopamine EC80; at 10 µM; stronger effect = higher value.
Sequence of UniProt P14416 (P14416 whole entry, looked up): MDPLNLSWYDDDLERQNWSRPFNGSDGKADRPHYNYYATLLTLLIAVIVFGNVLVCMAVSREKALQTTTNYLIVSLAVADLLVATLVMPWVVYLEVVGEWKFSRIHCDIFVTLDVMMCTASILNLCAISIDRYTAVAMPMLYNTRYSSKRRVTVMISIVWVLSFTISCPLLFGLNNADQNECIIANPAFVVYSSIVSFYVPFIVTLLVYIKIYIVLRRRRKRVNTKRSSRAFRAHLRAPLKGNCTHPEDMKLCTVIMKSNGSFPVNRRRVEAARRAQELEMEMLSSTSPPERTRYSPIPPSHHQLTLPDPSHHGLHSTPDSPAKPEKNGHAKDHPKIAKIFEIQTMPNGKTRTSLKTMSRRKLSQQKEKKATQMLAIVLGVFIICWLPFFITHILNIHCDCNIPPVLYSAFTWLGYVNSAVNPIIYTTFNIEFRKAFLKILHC
Outline: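 Calcium mobilization kinetics were recorded at 1 s intervals in tetracycline-induced HEK293 T-REx D2 cells, first for 180 s after compound addition and then 180 s after EC80 dopamine.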
Further: 0% is about no effect.

**Q.** How did the inhibition turn out when `CN(c1ccc(C(=O)N2CCN(Cc3ccccc3)CC2)cc1)S(=O)(=O)c1ccccc1` was run?
**A.** Its inhibition is active: 60.7%.

**Q.** For `CCc1ccc(NCc2cc3cc4c(cc3n(CC(=O)Nc3ccccc3C)c2=O)OCCO4)cc1`, which inhibition is on record?
**A.** The inhibition was 7.2%.

**Q.** For `Cc1cc(C)c(S(=O)(=O)N2CCCC2=O)c(C)c1N(C)S(C)(=O)=O`, which inhibition is on record?
**A.** Its inhibition is active: 37.8%.

**Q.** How did the inhibition turn out when `CCOC(=O)c1ccc(NC(=O)CC(=O)Nc2ccc3nc4n(c(=O)c3c2)CCCCC4)cc1` was run?
**A.** The inhibition was 1.23%.

**Q.** Which inhibition does the source give for `Cc1nn2c(C)c(C(=O)NCCc3ccccc3)cnc2c1-c1ccccc1` here?
**A.** The inhibition was 21.1%.

**Q.** For `COc1ccc(NC(=O)C2CCCN(S(=O)(=O)c3c(C)[nH]c(=O)[nH]c3=O)C2)c(OC)c1` (stereo not given), which inhibition is on record?
**A.** The inhibition was -17.1%.

**Q.** For `O=C(NCc1ccc(F)cc1)C(=O)NCC(c1ccc2c(c1)OCO2)N1CCOCC1` (stereo not given), which inhibition is on record?
**A.** Its inhibition is 2.75%.

**Q.** With `Cc1cccc(-c2nc3nc(C)cc(NC(C)c4ccccc4)n3n2)c1` (stereo not given) as the compound, how does the inhibition read?
**A.** The inhibition was -6.23%.

**Q.** With `COc1ccc(C(=O)N(Cc2ccco2)Cc2ccc(C)o2)cc1` as the compound, how does the inhibition read?
**A.** Its inhibition is 17.7%.

**Q.** With `COc1cc(NS(=O)(=O)c2ccc(NC(=O)c3ccc(Cl)cc3Cl)cc2)nc(OC)n1` as the compound, how does the inhibition read?
**A.** The inhibition was -0.217%.

**Q.** `CNC(=O)c1c(NC(=O)/C=C/c2ccccc2)sc2c1CCC2` was tested. Which inhibition did it give?
**A.** The inhibition was -9.99%.

**Q.** For `COCCCNC(=O)c1cnc2sc(N3CCCCC3)nn2c1=O`, which inhibition is on record?
**A.** The inhibition was 7.91%.

**Q.** With `Cc1ccc2nc(-c3ccc(NC(=O)COc4ccc(Br)cc4Br)cc3)sc2c1` as the compound, how does the inhibition read?
**A.** Its inhibition is 13.2%.

**Q.** For `CCOC(=O)c1ccc(-c2ccc3[nH]c4ccccc4c(=O)c3c2)cc1F`, which inhibition is on record?
**A.** Its inhibition is active: 30.9%.

**Q.** With `COc1cc(CN(C(=O)c2ccccc2F)C2CCS(=O)(=O)C2)cc(OC)c1OC` (stereo not given) as the compound, how does the inhibition read?
**A.** Its inhibition is -15.1%.

**Q.** How did the inhibition turn out when `Cc1ccc2c(CC(=O)Nc3ccc(S(=O)(=O)N4CCCCC4)cc3)coc2c1C` was run?
**A.** The inhibition was 1.2%.

**Q.** With `Cc1cccc(Nc2nc(N)nc(CN3CCN(c4ccccc4)CC3)n2)c1` as the compound, how does the inhibition read?
**A.** Its inhibition is active: 50.8%.

**Q.** Which inhibition does the source give for `Cc1cccc(N2CCN(C(=O)Cn3c(-c4cccs4)cc4ccccc43)CC2)c1C` here?
**A.** The inhibition was 6.68%.

**Q.** For `CCCS(=O)(=O)N1CC(=O)N(c2ccc(C)c(Cl)c2)C(C)(C(=O)NC2CCCCCC2)C1` (stereo not given), which inhibition is on record?
**A.** Its inhibition is 2.45%.

**Q.** `Oc1c(C(c2ccc(F)cc2)N2CCN(Cc3ccccc3)CC2)sc2nc(-c3ccco3)nn12` (stereo not given) was tested. Which inhibition did it give?
**A.** The inhibition was 8.48%.

**Q.** `O=C(NCCCN1CCN(c2ccccc2F)CC1)C1CCC(=O)N1C1CCCCC1` (stereo not given) was tested. Which inhibition did it give?
**A.** The inhibition was active: 55.7%.

**Q.** Which inhibition does the source give for `CN1C(=O)C2(c3ccccc31)N(c1cccc(C(F)(F)F)c1)C(=O)CS2(=O)=O` (stereo not given) here?
**A.** Its inhibition is 7.57%.

**Q.** `COc1ccc(N(CC(=O)Nc2cccnc2)S(=O)(=O)c2ccccc2)cc1Cl` was tested. Which inhibition did it give?
**A.** The inhibition was active: 31.1%.

**Q.** Which inhibition does the source give for `CCN1CCN(c2ncc3c(n2)CCN(Cc2ccccc2C)C3)CC1` here?
**A.** Its inhibition is 2.93%.

**Q.** `CCC(=O)N1CCc2cc(CNS(=O)(=O)c3ccc(CC(C)C)cc3)ccc21` was tested. Which inhibition did it give?
**A.** The inhibition was 3.04%.

**Q.** Which inhibition does the source give for `CC(C)CCNC(=O)C1CCN(C(=O)c2cc3sccc3n2Cc2ccc(Cl)cc2)CC1` here?
**A.** Its inhibition is -14.6%.

**Q.** How did the inhibition turn out when `COc1ccc(-c2nc(CS(=O)CC(=O)NCCc3ccc(Cl)cc3)c(C)o2)cc1OC` (stereo not given) was run?
**A.** Its inhibition is -0.0575%.

**Q.** How did the inhibition turn out when `CCc1ccc(-n2nc(CO)c(C(=O)NC)n2)cc1` was run?
**A.** Its inhibition is -6.68%.

**Q.** Which inhibition does the source give for `Cc1ccc(CS(=O)(=O)c2ncc(Cl)c(C(=O)Nc3nnc(C(C)C)s3)n2)cc1` here?
**A.** The inhibition was 3.61%.

**Q.** With `CCOc1ccc(/C=C/C(=O)Nc2ccc3nc(N(CC)CC)cc(C)c3c2)cc1OC` as the compound, how does the inhibition read?
**A.** Its inhibition is 4.57%.

**Q.** How did the inhibition turn out when `O=C(CCNS(=O)(=O)c1ccc2c(c1)CCN2C(=O)C1CC1)N1CCN(c2cccc(Cl)c2)CC1` was run?
**A.** Its inhibition is -7.44%.

**Q.** `CCc1ccc(C2c3c(-c4ccccc4O)n[nH]c3C(=O)N2Cc2cccnc2)cc1` (stereo not given) was tested. Which inhibition did it give?
**A.** Its inhibition is 15.3%.

**Q.** For `CCC(=O)N1c2ccc(S(=O)(=O)CCC(=O)Nc3ccc(OC)cc3OC)cc2CC1C` (stereo not given), which inhibition is on record?
**A.** The inhibition was 16.3%.

**Q.** `Cc1ccc(Cl)cc1-n1nnc(-c2nc(-c3ccc4c(c3)OCO4)no2)c1C` was tested. Which inhibition did it give?
**A.** Its inhibition is -4.03%.

**Q.** Which inhibition does the source give for `COc1ccc(Nc2nn3c(=O)c4cc5c(cc4nc3s2)OCO5)c(OC)c1` here?
**A.** Its inhibition is -1.48%.

**Q.** Which inhibition does the source give for `Cc1cccc(N(C)S(=O)(=O)c2cc(-c3cnc(C4CC4)o3)ccc2C)c1` here?
**A.** Its inhibition is 25.8%.

**Q.** With `CCc1c(C)sc2c1CCN(Cc1ccc(C#N)cc1)C2c1ccccc1` (stereo not given) as the compound, how does the inhibition read?
**A.** Its inhibition is 16.3%.

**Q.** For `Clc1ccccc1OCc1nnc(-c2ccccc2Br)o1`, which inhibition is on record?
**A.** Its inhibition is active: 36.2%.

**Q.** Which inhibition does the source give for `CCOC(=O)c1c(NC(=O)c2cc(-c3ccc(OC)c(OC)c3)on2)sc2c1CCCC2` here?
**A.** Its inhibition is -8.74%.

**Q.** With `O=C(CN1C(=O)CCSc2ccc(S(=O)(=O)N3CCCC3)cc21)Nc1cccc(F)c1` as the compound, how does the inhibition read?
**A.** Its inhibition is 6.44%.

**Q.** With `CCOC(=O)C(C)NC(=O)c1c2c(nc3ccccc13)C(=O)N(C1CCCCC1)C2` (stereo not given) as the compound, how does the inhibition read?
**A.** Its inhibition is 7.45%.

**Q.** Which inhibition does the source give for `COc1cc(C(c2c(C)[nH][nH]c2=O)c2c(C)[nH][nH]c2=O)ccc1OC(=O)c1ccccc1OC` here?
**A.** The inhibition was 10.8%.

**Q.** With `COC(=O)CC1Oc2ccccc2-n2cc(-c3ccc(F)cc3)nc21` (stereo not given) as the compound, how does the inhibition read?
**A.** The inhibition was 11.9%.

**Q.** With `COc1ccc(CCNC(=O)CN(c2ccccc2)S(=O)(=O)N(C)C)cc1OC` as the compound, how does the inhibition read?
**A.** Its inhibition is -21.1%.

**Q.** With `CC(=O)N1CCC(N(CCCOC(C)C)C(=O)Nc2ccc(C)c(C)c2)CC1` as the compound, how does the inhibition read?
**A.** Its inhibition is 5.17%.

**Q.** For `Cc1ccc(NC(=O)c2oc3ccc(S(=O)(=O)N4CCC5(CC4)OCCO5)cc3c2C)cc1Cl`, which inhibition is on record?
**A.** The inhibition was -12.7%.

**Q.** `CCc1cccc(C)c1NC(=O)CSc1nc2ccccc2nc1Cc1ccccc1` was tested. Which inhibition did it give?
**A.** Its inhibition is -27.3%.

**Q.** Which inhibition does the source give for `COc1ccc(-c2nc3cc(NC(=O)COc4ccccc4C)ccc3o2)cc1` here?
**A.** Its inhibition is -16.5%.

**Q.** How did the inhibition turn out when `CC(C)CN(CCNC(=O)CCN1N=C(c2ccccc2)CCC1=O)CC(C)C` was run?
**A.** Its inhibition is -9.7%.

**Q.** Which inhibition does the source give for `COc1ccc2c(C)c(CC(=O)NCc3ccccc3Cl)c(=O)oc2c1OC` here?
**A.** Its inhibition is 5.94%.

**Q.** For `CCSc1nc2ccccc2c(OCc2ccc(Cl)cc2)c1C(=O)OC`, which inhibition is on record?
**A.** The inhibition was -1.78%.

**Q.** `COc1ccc2c(c1)c1c(c(=O)n(CCc3ccccc3)c(=O)n1Cc1cccc(F)c1)n2C` was tested. Which inhibition did it give?
**A.** Its inhibition is 13.4%.

**Q.** How did the inhibition turn out when `CCc1ccccc1NC(=O)c1ccc2c(c1)CCCN2S(C)(=O)=O` was run?
**A.** Its inhibition is -9.27%.

**Q.** How did the inhibition turn out when `Cc1ccc(-c2onc(C)c2C)cc1S(=O)(=O)Nc1ccccn1` was run?
**A.** Its inhibition is 1.75%.

**Q.** With `COc1ccc(Cn2c(CO)cnc2SCc2ccc(C)cc2)cc1` as the compound, how does the inhibition read?
**A.** The inhibition was -26.4%.

**Q.** For `CC(C)(C)OC(=O)N1CCC(c2c(C(=O)N3CCN(Cc4ccccc4)CC3)cnn2-c2cccc(Cl)c2)CC1`, which inhibition is on record?
**A.** The inhibition was 3.24%.

**Q.** Which inhibition does the source give for `CN(C)S(=O)(=O)N1CCC(n2c(C(F)(F)F)nc3cccnc32)CC1` here?
**A.** The inhibition was -0.601%.

**Q.** With `Cc1cccc(NC(=O)CSC2=Nc3ccccc3C3=NC(CCC(=O)NCc4ccco4)C(=O)N23)c1` (stereo not given) as the compound, how does the inhibition read?
**A.** The inhibition was 15.8%.

**Q.** How did the inhibition turn out when `COc1cc(OC)c(NC(=O)Cn2ncn3c(cc4cc(C)ccc43)c2=O)cc1Cl` was run?
**A.** Its inhibition is -4.11%.

**Q.** For `COc1ccccc1CNC(=O)Cn1cc2c(n1)-c1c(oc(C(=O)N3CCOCC3)c1C)CC2`, which inhibition is on record?
**A.** The inhibition was -7.99%.
